Source: ChEMBL document CHEMBL4888484, “Replenishing the malaria drug discovery pipeline: Screening and hit evaluation of the MMV Hit Generation Library 1 (HGL1) against asexual blood stage Plasmodium falciparum ,using a nano luciferase reporter read-out” (2022)
The whole screen tested about 150,000 compounds, of which about 540 (0.36%) showed an effect of 50% or more. Some of the results follow.

Tested on: Plasmodium falciparum
Experiment: Primary screen in NF54 nanoGlo assay, in single point, at 2uM, 72h; a lower Z score goes with more inhibition
Format: functional, Erythrocyte
Details: timepoint 72 hour

SMILES	% Inhibition [%]	Z score
CC(C)(C)OC(=O)N1CCC(CC(=O)NC[C@@H](CO)Cc2ccccc2F)CC1	-13	1.72
O=S(=O)(c1ccc(Br)cc1Cl)N(CCO)CCCO	-16	1.78
COc1ccccc1-c1nnc2c3cc(C)ccc3nc(NCc3ccccc3)n12	-13	1.92
CC(C(=O)NCc1cn(C(C)C)c(=O)[nH]c1=O)=C1CCCC1	-8	1.04
O=C(c1cn2cccnc2n1)N1CC[C@@]2(CCCN(CCC3CCCCC3)C2)C1	-5	0.94
O=C(c1nnc(-c2cc(Cl)ccc2F)o1)N1CCCC1	-10	1.72
COc1cc(C)c2[nH]c3c(c(=O)c2c1)CN(CC(=O)Nc1ccc(C)c(F)c1)CC3	34	-0.74
Cn1nnnc1Cc1ccc(Br)cc1	-7	1.21
CS(=O)(=O)CCN1CCC[C@H]1c1ccc2c(c1)OCCCO2	-9	0.9
Cc1cccc(NC(=O)N2CCC3(CC2)c2nccn2CCN3C)c1C	-9	1.15
CC[C@@H](NC(C)=O)c1nc(-c2cccnn2)no1	-14	2.65
Cc1cc(C(=O)N2CCC[C@H]2c2ccsc2)c(C)s1	-8	0.8
Cc1cc(C)c(CNS(=O)(=O)CCc2ccccn2)c(C)c1	-9	0.87
Cc1ccc(Cl)cc1NC(=O)COc1ccc(N2CC(C(=O)NCC3CCCO3)CC2=O)cc1 (stereo not drawn)	-13	1.37
Cc1nn(C)c(C)c1CC(=O)N1CCc2ccccc21	-5	0.46
COc1ccc(-c2nccn2CC[C@H]2CCOC2)cc1C(=O)O	-18	1.6
C#CCCCCNC(=O)Nc1cccc(F)c1	16	-1.88
CCN(CC)S(=O)(=O)NCc1ncc(C)c(O)c1C	-4	0.73
Cc1ccc(CCN2CCC[C@@H]2C(=O)O)cc1	3	-0.5
COc1cccc(CN(Cc2cn(C(C)C)nn2)C2CCC(O)CC2)c1 (stereo not drawn)	-20	2.11
O=C(Nc1cccs1)N1Cc2cccnc2C1	-5	0.98
Cc1ccc([C@H]2CN(CC(=O)Nc3ccc(C)cn3)C[C@@H]2N(C)C)cc1	11	-1.05

SMILES	% Inhibition [%]	Z score
O=C(Nc1cn[nH]c1)N(CCC(F)(F)F)C1CCCC1	-5	0.72
CCCCn1nc(C(=O)N2CCC3(CC2)NC(=O)NC3=O)ccc1=O	-14	1.26
Cc1ncsc1CNc1nnc(CC(C)(C)C)o1	37	-5.03
CCc1ccc(NC(=O)c2nnc(CN(CC)C[C@H]3CCCO3)s2)cc1	-11	1.5
Cc1nccn1-c1ncc(NC(=O)Nc2ccccc2Cl)cn1	-14	2.61
COc1ccnc(N2CCN[C@H](C(=O)N3CCCC3)C2)n1	-3	0.35
COc1cc(-c2nc(C(=O)N3CCCC3)cs2)ccc1OCc1ccc(F)c(F)c1	-16	1.88
Cc1nccnc1[C@H](C)NCc1cccc(Br)c1	-8	0.76
CCCc1ccc(-c2ccc(F)c(N3C(=O)c4c(Cl)c(Cl)c(Cl)c(Cl)c4C3=O)c2)nc1	-5	0.7
c1ccc(N2CCN(c3nc(-c4nc([C@H]5CCOC5)no4)cs3)CC2)cc1	-5	0.69
CN(C)C[C@@H]1CN(Cc2cccnc2)C[C@H]1NS(=O)(=O)c1ccccc1F	-17	2.7
CCNc1ncc(Br)cc1C#N	-17	1.87
CC(CS(=O)(=O)N(C)C)NC1CCCc2c1cnn2C (stereo not drawn)	-9	1.1
COc1ccc(CCc2nc(NC(=O)[C@H]3CC(=O)N(c4ccccc4)C3)n[nH]2)cc1	-11	1.33
CC(C)NC(=O)CN(C)CCCN1CCC(F)(F)CC1	-3	0.41
Cc1cn(C)nc1C(=O)NC1CC2(COC(C)(C)C2)C1 (stereo not drawn)	-14	2.13
CCOC(=O)C1CCN(c2ccc(-c3nc(-c4ccccc4C)no3)nn2)CC1	-7	0.8
CC(C)[C@H]1OCC[C@@H]1CNc1ccc(S(C)(=O)=O)cc1	-8	1.07
C[C@@H](C(=O)Nc1nccs1)N1CCCC1	-4	0.56
CC(C)c1nc(CNC(=O)c2ccc(NCCN3CCNC3=O)nc2)no1	-19	1.78
CN(C)C[C@@H](c1ccccc1)N(C)C(=O)c1ccc(-n2cnnc2)nc1	-15	1.6
CCCOC(=O)N1CCCn2nc(-c3nc4cc(OC)ccc4[nH]3)cc2C1	-9	1.32
